# Assay results: PMC4336329 (PLoS ONE, 2015)
# Screen size: about 310,000 compounds; about 2,200 (0.71%) showed an effect of 50% or more. Effects have a minus sign here. The list shows a part of the results.
# Target: human ether-à-go-go-related gene (hERG) potassium channel (human, UniProt Q12809)
# Assay: primary screen, population patch clamp on CHO cells stably expressing hERG
# human ether-à-go-go-related gene (hERG) potassium channel, sequence (Q12809 whole entry, looked up): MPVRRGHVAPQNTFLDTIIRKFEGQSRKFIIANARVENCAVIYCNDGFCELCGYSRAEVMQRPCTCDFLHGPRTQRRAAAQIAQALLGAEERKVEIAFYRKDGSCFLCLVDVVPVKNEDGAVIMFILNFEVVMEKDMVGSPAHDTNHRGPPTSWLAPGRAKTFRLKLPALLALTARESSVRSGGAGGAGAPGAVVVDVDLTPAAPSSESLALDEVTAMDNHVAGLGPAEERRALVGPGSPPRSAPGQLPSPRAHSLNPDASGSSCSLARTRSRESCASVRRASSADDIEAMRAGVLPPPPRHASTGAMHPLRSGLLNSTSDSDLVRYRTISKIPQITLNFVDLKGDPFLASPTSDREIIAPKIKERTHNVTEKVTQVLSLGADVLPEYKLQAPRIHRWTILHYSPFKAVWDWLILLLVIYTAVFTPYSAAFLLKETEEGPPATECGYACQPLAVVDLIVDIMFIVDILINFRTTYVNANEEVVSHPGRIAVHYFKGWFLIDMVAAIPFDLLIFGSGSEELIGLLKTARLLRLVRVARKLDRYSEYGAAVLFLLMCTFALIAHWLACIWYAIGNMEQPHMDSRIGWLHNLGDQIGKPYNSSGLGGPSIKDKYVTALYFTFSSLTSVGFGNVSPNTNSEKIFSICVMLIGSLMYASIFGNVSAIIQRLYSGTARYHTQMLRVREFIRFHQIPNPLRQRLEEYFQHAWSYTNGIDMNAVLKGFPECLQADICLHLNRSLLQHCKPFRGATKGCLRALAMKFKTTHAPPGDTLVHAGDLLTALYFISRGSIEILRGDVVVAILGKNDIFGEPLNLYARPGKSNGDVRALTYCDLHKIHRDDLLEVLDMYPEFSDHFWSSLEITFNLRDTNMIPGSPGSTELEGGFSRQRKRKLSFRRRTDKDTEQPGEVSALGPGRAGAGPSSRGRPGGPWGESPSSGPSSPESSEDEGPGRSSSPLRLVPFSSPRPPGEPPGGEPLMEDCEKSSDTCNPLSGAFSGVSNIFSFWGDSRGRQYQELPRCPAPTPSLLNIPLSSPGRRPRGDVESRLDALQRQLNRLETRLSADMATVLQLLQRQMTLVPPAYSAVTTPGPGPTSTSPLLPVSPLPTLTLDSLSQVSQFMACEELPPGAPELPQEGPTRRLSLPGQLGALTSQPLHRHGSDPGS
row,SMILES,"hERG current change (%, negative = inhibition) at 1uM [%]"
1,O=C1CC(C(=O)Nc2cccc(F)c2)n2ncnc2N1 (stereo not shown),4.28
2,Cc1cc(C)n2nc(C(=O)N3CCOCC3)nc2n1,15.3
3,Cc1cc(C)c(C)c(OCC(=O)O/N=C(\N)c2cccnc2)c1,10.1
4,Cc1cc(C(F)(F)F)nn1CC(=O)N1CCOCC1,-3.74
5,CCCCCn1c(=O)c(C(=O)OCC)c(O)c2ccccc21,-4.24
6,CCOc1cc(N2CCOCC2)c(OCC)cc1NC(=O)COc1cccc(CC)c1,16.6
7,CC(=O)Nc1ccccc1C(=O)C(=O)Nc1cccc(C(=O)NC2CC2)c1,12.4
8,CC(C)CN1CCN=C1N(C)C,16
9,COc1ccccc1/C=C/C(=O)NNC(=O)c1cc(C)oc1C,3.97
10,O=C1NC(=O)C(Cc2cccs2)C(=O)N1,8.03
11,CCOC(=O)c1c(C)oc(NC(=O)CCl)c1C(=O)OCC,10
12,CCN(CC(=O)Nc1ccc(OC)cc1)C(=O)CCc1nc2ccccc2c(=O)[nH]1,5.72
13,O=C(Nc1ccccc1-c1ccccc1)NC1CCN(C(=O)N2CCOCC2)CC1,7.99
14,COc1ccc(C(=O)N2CCN(S(=O)(=O)c3ccc(C)cc3)CC2)cc1S(=O)(=O)N1CCOCC1,4.42
15,COc1ccccc1N1CCN(CCCNC(=O)C2CCCN(c3ncnc4c3nc3n4CCCCC3)C2)CC1 (stereo not shown),10.3
16,O=C(N/C(=C/c1cccs1)C(=O)N1CCCC1)c1ccccc1,14.4
17,CCCCc1nc(NCC2CCCO2)c(C#N)c2c1COC(C)(C)C2 (stereo not shown),6.42
18,CCN(CC)CCN1C(=O)C2C(C(=O)Nc3ccc(Br)cc3)C3C=CC2(O3)C1C(=O)NC1CCCCC1 (stereo not shown),5.12
19,N#Cc1ncn(-c2ccc(Oc3ccccc3)cc2)c1N,0.513
20,CN(Cc1cnccn1)Cc1nc(Cc2cccc(F)c2)no1,15.9

row,SMILES,"hERG current change (%, negative = inhibition) at 1uM [%]"
1,CCOc1ncccc1C(=O)OCC(=O)N1CCN(S(=O)(=O)c2ccc(Cl)cc2)CC1,12.1
2,O=S(=O)(Cc1ccccc1Cl)NCCc1ccc(F)cc1,7.36
3,Cc1ccc(NC(=O)CN2C(=O)C3CC=C(Cl)CC3C2=O)cc1 (stereo not shown),8.18
4,CCOC(=O)c1c(NC(=S)Nc2cc([N+](=O)[O-])ccc2OC)sc2c1CCCCC2,2.89
5,CCOc1ccc(NC(=O)N2CCC(NC(=O)c3ccco3)CC2)cc1,-0.77
6,C/C=C\C=C/C(=O)Nc1cccc(C2=NOC3(C2)C[C@H](C(N)=O)N(C(=O)c2ccc(OC)cc2)C3)c1 (stereo partly shown),15.6
7,CN(C)c1cccc(C(=O)OCCCC(=O)c2ccc(F)cc2)c1,-0.568
8,COc1ccc(C(=O)NCN2CCN(c3ccccc3)CC2)cc1OC,7.76
9,Cl.Fc1ccc(COc2ccc(Br)cc2CNCc2ccncc2)cc1,-7.69
10,O=C(NC1CC1)C1Nc2ccc(OC(F)(F)F)cc2C2C=CCC12 (stereo not shown),3.62
11,O=C(NCc1cccnc1)C1CCCN(S(=O)(=O)c2cccc3nsnc23)C1 (stereo not shown),-5.19
12,CC(C)S(=O)(=O)c1csc(C(=O)Nc2ccc(F)cc2)c1N,12
13,CCOCC(=O)Nc1cc(Cl)c(OC)cc1OC,12.6
14,Cc1ccc(S(=O)(=O)N2CCN(C(=O)COC(=O)c3ccc([N+](=O)[O-])o3)CC2)c(C)c1,-7.35
15,Cc1c(NC(=O)CCC2CCCCC2)c(=O)n(-c2ccccc2)n1C,2.86
16,Cc1ccc(C2CCN(C(=S)NC3CCCCC3)C2)cc1 (stereo not shown),8.58
17,O=C(c1ccccc1F)N1CCCC(c2ccccc2)C1 (stereo not shown),0.0509
18,CCCCN=C1NN=C(c2cccc([N+](=O)[O-])c2)CS1.Cl,-0.44
19,CCOc1cc(/C=N/NC(=O)CN2CCCCC2)ccc1OCc1ccccc1,-12.6
20,Cn1c(SCC(=O)NCc2ccccc2)nnc1-c1ccc(NC(=O)CCc2ccccc2)cc1,4.81

row,SMILES,"hERG current change (%, negative = inhibition) at 1uM [%]"
1,CCNc1nc(NC(C)C)nc(NS(=O)(=O)c2ccc(N)cc2)n1,0.986
2,CN(CC1COc2ccccc2O1)C(=S)Nc1ccccc1 (stereo not shown),-0.26
3,Cc1cccc(C(=O)Oc2ccccc2C2C[C@]3(C)CC(=O)NC3N2C(=O)c2cccc(C)c2)c1 (stereo partly shown),6.1
4,CCCn1nnc(NC(=O)c2ccc(OCC)c(Cl)c2)n1,7.81
5,CCC1CCC/C1=N\NC(=O)c1ccccc1Cl (stereo not shown),4.55
6,CCCCC(CC)C1OCC(CN2CCCCC2)O1 (stereo not shown),1.44
7,CC(=O)[C@@]1(O)CC[C@H]2[C@@H]3CC=C4C[C@@H](O)CC[C@]4(C)[C@H]3CC[C@@]21C,7.77
8,COCCCNC(=O)CSc1nc2c(sc3ccccc32)c(=O)n1CCCC(=O)NCC1CCCO1 (stereo not shown),-2.49
9,S=c1[nH]nc(Nc2cccc3ccccc23)s1,14.8
10,Cc1ccc(-c2cc(C(=O)N3CCC4(CC3)OCCO4)no2)cc1,4.37
11,Cc1cc(=O)n2[nH]c(-c3ccsc3-n3c(C)ccc3C)cc2n1,5.39
12,CN1C(=O)c2ccc(Oc3ccccc3)cc2C1=O,6.8
13,COc1ccc(Nc2cc(C)nc3ncnn23)cc1Cl,2.06
14,NC(=O)c1cc([N+](=O)[O-])ccc1Nc1ccccc1,9.96
15,O=C(COC(=O)CC1CC2CCC1C2)NC(=O)NC1CCCC1 (stereo not shown),8.39
16,O=C(NNC(=O)c1ccc(Oc2cc(Cl)cc(Cl)c2)o1)c1ccccc1,11.9
17,NC(=O)C1CCN(C(=O)CCC(=O)c2ccc(F)cc2)CC1,12.7
18,O=C(CN1CCOCC1)N1CCCc2ccccc21.O=C(O)C(=O)O,19
